Measured values from patent US20210070829A1 (ZHEJIANG DOER BIOLOGICS, published 2021).

B1: C228 L13F4L13M12 (Fc fusion)
chain: HSQGTFTSDYSKYLDEERAQDFVQWLMNTGPSSGAPPPSGGGGSGGGGSGGGGSA[human IgG1 Fc with changes omitted here]GGGSGGGGSGGGGSAHPIPDSSPLLQFGGQVRQRYLYTDDAQQTEAHLEIREDGTVGGAADQSPESLLQLKALKPGVIQILGVKTSRFLCQRPDGALYGSLHFDPEACSFRERLLEDGYNVYQSEAHGLPLHCPGNKSPHRDPAPRGPCRFLPLPGLPPALPEPPGILAPQPPDVGSSDPLAMVGGSQGRSPSYAS
B2: C462 L11F8L13M1 (Fc fusion)
chain: HSQGTFTSDYSKYLDEEAAQDFVQWLMNGGPSSGAPPPSGGSGGGGSGGGGSGGA[human IgG4 Fc with S228P N297A (EU numbers) omitted here]GGGGSGGGGSGGGGSAHPIPDSSPLLQFGGQVRQRYLYTDDAQQTEAHLEIREDGTVGGAADQSPESLLQLKALKPGVIQILGVKTSRFLCQRPDGALYGSLHFDPEACSFRERLLEDGYNVYQSEAHGLPLHLPGNKSPHRDPAPRGPARFLPLPGLPPALPEPPGILAPQPPDVGSSDPLSMVGGSQGRSPSYES
B3: C462 L9F2L9M10 (Fc fusion)
chain: HSQGTFTSDYSKYLDEEAAQDFVQWLMNGGPSSGAPPPSGGGGSGGGGSGGGGS[human IgG1 Fc with changes omitted here]GGGSGGGGSGGGGSDSSPLLQFGGQVRQRYLYTDDAQQTEAHLEIREDGTVGGAADQSPESLLQLKALKPGVIQILGVKTSRFLCQRPDGALYGSLHFDPEACSFRERLLEDGYNVYQSEAHGLPLHCPGNKSPHRDPAPRGPCRFLPLPGLPPALPEPPGILAPQPPDVGSSDPLAMVGGSQGRSPSYAS
B4: C618 L13F7L13M1 (Fc fusion)
chain: HSQGTFTSDLSKQMDSRAAQDFIEWLKNGGPSSGAPPPSGGGGSGGGGSGGGGSA[human IgG4 Fc with S228P N297A (EU numbers) omitted here]GGGGSGGGGSGGGGSAHPIPDSSPLLQFGGQVRQRYLYTDDAQQTEAHLEIREDGTVGGAADQSPESLLQLKALKPGVIQILGVKTSRFLCQRPDGALYGSLHFDPEACSFRERLLEDGYNVYQSEAHGLPLHLPGNKSPHRDPAPRGPARFLPLPGLPPALPEPPGILAPQPPDVGSSDPLSMVGGSQGRSPSYES
B5: C392 L11F7L10M5 (Fc fusion)
chain: HSQGTFTSDYSKYLDEEAAQDFVQWLMNTGPSSGAPPPSGGSGGGGSGGGGSGGA[human IgG4 Fc with S228P N297A (EU numbers) omitted here]GGGGAGGGGAGGGGAHPIPDSSPLLQFGGQVRQRYLYTDDAQQTEAHLEIREDGTVGGAEDQSPESLLQLKALKPGVIQILGVKTSRFLCQRPDGALYGSLHFDPEACSFRERLLEDGYNVYQSEAHGLPLHCPGNKSPHRDPAPRGPCRFLPLPGLPPALPEPPGILAPQPPDVGSSDPLSMVGGSQGRSPSYES
B6: C462 L13F8L10M2 (Fc fusion)
chain: HSQGTFTSDYSKYLDEEAAQDFVQWLMNGGPSSGAPPPSGGGGSGGGGSGGGGSA[human IgG4 Fc with S228P N297A (EU numbers) omitted here]GGGGAGGGGAGGGGAHPIPDSSPLLQFGGQVRQRYLYTDDAQQTEAHLEIREDGTVGGAADQSPESLLQLKALKPGVIQILGVKTSRFLCQRPDGALYGSLHFDPEACSFRERLLEDGYNVYQSEAHGLPLHCPGNKSPHRDPAPRGPCRFLPLPGLPPALPEPPGILAPQPPDVGSSDPLSMVGGSQGRSPSYES
B7: C266 L13F7L13M4 (Fc fusion)
chain: HSQGTFTSDYSKYLDSQAAQDFVQWLMNGPSSGAPPPSGGGGSGGGGSGGGGSA[human IgG4 Fc with S228P N297A (EU numbers) omitted here]GGGGSGGGGSGGGGSAHPIPDSSPLLQFGGQVRQRYLYTDDAQQTEAHLEIREDGTVGGAADQSPESLLQLKALKPGVIQILGVKTSRFLCQRPDGALYGSLHFDPEACSFRERLLEDGYNVYQSEAHGLPLHCPGNKSPHRDPAPRGPCRFLPLPGLPPALPEPPGILAPQPPDVGSSDPLAMVGGSQGRSPSYES
B8: C399 L12F4L19M8 (Fc fusion)
chain: HSQGTFTSDYSKYLDGERAQDFVQWLMNTGPSSGAPPPSGGGGAGGGGAGGGGAA[human IgG1 Fc with changes omitted here]GGGSGGGGSGGGGSGGGGSGGGGSHPIPDSSPLLQFGGQVRQRYLYTDDAQQTEAHLEIREDGTVGGAADQSPESLLQLKALKPGVIQILGVKTSRFLCQRPDGALYGSLHFDPEACSFRERLLEDGYNVYQSEAHGLPLHLPGNKSPHRDPAPRGPARFLPLPGLPPALPEPPGILAPQPPDVGSSDPLSMVGGSQGRSPSAAS
B9: C611 L11F4L11M11 (Fc fusion)
chain: HSQGTFTSDYSKYLDERAAQDFVQWLLDGPSSGAPPPSGGSGGGGSGGGGSGGA[human IgG1 Fc with changes omitted here]GSGGGGSGGGGSGGAHPIPDSSPLLQFGGQVRQRYLYTDDAQQTEAHLEIREDGTVGGAADQSPESLLQLKALKPGVIQILGVKTSRFLCQRPDGALYGSLHFDPEACSFRERLLEDGYNVYQSEAHGLPLHLPGNKSPHRDPAPRGPARFLPLPGLPPALPEPPGILAPQPPDVGSSDPLAMVGGSQGRSPSYES
B10: C187 L9F4L12M7 (Fc fusion)
chain: HSQGTFTSDYSKYLDSQRAQDFVQWLMNTGPSSGAPPPSGGGGSGGGGSGGGGS[human IgG1 Fc with changes omitted here]GGGAGGGGAGGGGAAHPIPDSSPLLQFGGQVRQEYLYTDDAQQTEAHLEIREDGTVGGAADQSPESLLQLKALKPGVIQILGVKTSRFLCQRPDGALYGSLHFDPEACSFRERLLEDGYNVYQSEAHGLPLHLPGNKSPHRDPAPRGPARFLPLPGLPPALPEPPGILAPQPPDVGSSDPLSMVGGSQGRSPSYES
B11: C364 L10F4L12M8 (Fc fusion)
chain: HSQGTFTSDYSKYLDGQAAQDFVQWLMNGGPSSGAPPPSGGGGAGGGGAGGGGA[human IgG1 Fc with changes omitted here]GGGAGGGGAGGGGAAHPIPDSSPLLQFGGQVRQRYLYTDDAQQTEAHLEIREDGTVGGAADQSPESLLQLKALKPGVIQILGVKTSRFLCQRPDGALYGSLHFDPEACSFRERLLEDGYNVYQSEAHGLPLHLPGNKSPHRDPAPRGPARFLPLPGLPPALPEPPGILAPQPPDVGSSDPLSMVGGSQGRSPSAAS
B12: C289 L12F4L8M10 (Fc fusion)
chain: HSQGTFTSDYSKYLDGEAAQDFVQWLMNGGPSSGAPPPSGGGGAGGGGAGGGGAA[human IgG1 Fc with changes omitted here]GSGGGAGGGGSDSSPLLQFGGQVRQRYLYTDDAQQTEAHLEIREDGTVGGAADQSPESLLQLKALKPGVIQILGVKTSRFLCQRPDGALYGSLHFDPEACSFRERLLEDGYNVYQSEAHGLPLHCPGNKSPHRDPAPRGPCRFLPLPGLPPALPEPPGILAPQPPDVGSSDPLAMVGGSQGRSPSYAS
B13: C209 L13F8L13M9 (Fc fusion)
chain: HSQGTFTSDYSKYLDSEAAQDFVQWLMNGGPSSGAPPPSGGGGSGGGGSGGGGSA[human IgG4 Fc with S228P N297A (EU numbers) omitted here]GGGGSGGGGSGGGGSAHPIPDSSPLLQFGGQVRQRYLYTDDAQQTEAHLEIREDGTVGGAADQSPESLLQLKALKPGVIQILGVKTSRFLCQRPDGALYGSLHFDPEACSFRERLLEDGYNVYQSEAHGLPLHCPGNKSPHRDPAPRGPCRFLPLPGLPPALPEPPGILAPQPPDVGSSDPLAMVGGSQGRSPSYAS
B14: C462 L13F4L10M2 (Fc fusion)
chain: HSQGTFTSDYSKYLDEEAAQDFVQWLMNGGPSSGAPPPSGGGGSGGGGSGGGGSA[human IgG1 Fc with changes omitted here]GGGAGGGGAGGGGAHPIPDSSPLLQFGGQVRQRYLYTDDAQQTEAHLEIREDGTVGGAADQSPESLLQLKALKPGVIQILGVKTSRFLCQRPDGALYGSLHFDPEACSFRERLLEDGYNVYQSEAHGLPLHCPGNKSPHRDPAPRGPCRFLPLPGLPPALPEPPGILAPQPPDVGSSDPLSMVGGSQGRSPSYES
B15: C137 L10F8L9M5 (Fc fusion)
chain: HSQGTFTSDYSKYLDSERAQDFVQWLMNTGPSSGAPPPSGGGGAGGGGAGGGGA[human IgG4 Fc with S228P N297A (EU numbers) omitted here]GGGGSGGGGSGGGGSHPIPDSSPLLQFGGQVRQRYLYTDDAQQTEAHLEIREDGTVGGAEDQSPESLLQLKALKPGVIQILGVKTSRFLCQRPDGALYGSLHFDPEACSFRERLLEDGYNVYQSEAHGLPLHCPGNKSPHRDPAPRGPCRFLPLPGLPPALPEPPGILAPQPPDVGSSDPLSMVGGSQGRSPSYES

These binders were tested against human GLP-1 receptor (human, UniProt P43220) (assay: cell-based or functional assay).

| Binder | GLP-1R agonist activity EC50 (luciferase reporter) |
| --- | --- |
| B1 | 1.27 nM |
| B2 | 1.41 nM |
| B3 | 1.21 nM |
| B4 | 1.47 nM |
| B5 | 1.67 nM |
| B6 | 1.21 nM |
| B7 | 1.37 nM |
| B8 | 1.89 nM |
| B9 | 1.1 nM |
| B10 | 1.88 nM |
| B11 | 1.87 nM |
| B12 | 1.77 nM |
| B13 | 1.74 nM |
| B14 | 1.32 nM |
| B15 | 1.79 nM |

The binders below were run against Glucagon receptor (assay: cell-based or functional assay).

| Binder | GCGR agonist activity EC50 (luciferase reporter) |
| --- | --- |
| B1 | 1.38 nM |
| B2 | 1.17 nM |
| B3 | 1.34 nM |
| B4 | 1.25 nM |
| B5 | 1.46 nM |
| B6 | 1.63 nM |
| B7 | 1.34 nM |
| B8 | 1.82 nM |
| B9 | 1.39 nM |
| B10 | 1.69 nM |
| B11 | 1.27 nM |
| B12 | 1.38 nM |
| B13 | 1.45 nM |
| B14 | 1.27 nM |
| B15 | 1.77 nM |

Each binder was assayed against FGFR/β-Klotho receptor complex (assay: cell-based or functional assay).

| Binder | FGF21 activity EC50 (luciferase reporter) |
| --- | --- |
| B1 | 1.37 nM |
| B2 | 0.78 nM |
| B3 | 1.54 nM |
| B4 | 0.68 nM |
| B5 | 0.85 nM |
| B6 | 0.58 nM |
| B7 | 0.69 nM |
| B8 | 0.96 nM |
| B9 | 1.73 nM |
| B10 | 0.79 nM |
| B11 | 0.73 nM |
| B12 | 1.36 nM |
| B13 | 1.13 nM |
| B14 | 0.88 nM |
| B15 | 0.78 nM |
